Test results reported in the supplement of paper PMC10338343.
± gives the standard deviation. Whole data set: some 6,600 sequences, median “pre-steady-state target cleavage rate” near 0.07, cut for the highest 2% near 0.72. The list shows a part of the results, in another mix than the full data.

Tested on: MIWI (PIWIL1) piRISC loaded with Kctd7 piRNA (30 nt)
Assay: pre-steady-state target cleavage rate (min^-1); MIWI and MILI are mouse PIWI proteins and EfPiwi is from a freshwater sponge; tags in brackets are library labels; higher = faster piRNA-guided slicing of the target
Conditions: guide: Kctd7 piRNA 5'p-UGUUAAUCUCUCAGAGAAGGUGACAGUGAU; auxiliary factor: 500 nM mouse GTSF1
In short: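 The pre-steady-state cleavage rate was obtained by Cleave-'n-Seq with a burst-and-steady-state fit. A transcribed, DNA-blocked target RNA library (0.1 nM) was mixed with 1 nM active affinity-purified piRISC carrying one synthetic guide, with or without 500 nM GTSF1 partner protein, in HEPES–potassium acetate buffer at 33 °C for 0–8 or 0–960 min. Uncleaved targets were sequenced and normalised to depth and to weakly complementary targets, with three trials pooled and k3 capped at 0.0001 min^-1.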

Sequence	pre-steady-state target cleavage rate
UACUCUGUCACCUUCACUGAGAGAUUAACA	0.505 ± 0.028
UUCAGUGUCACCUUGUCUGAGAGAUUAACA	0.2 ± 0.029
UAGACUGUCACCUUCUCGAGAGAUUAACA	0.058 ± 0.0086
AUCACUCUGACCUUCUCUGAGAGAUUAACA	0.488 ± 0.026
UAGUGACUCACCUUCAUCUGAGAGAUUAACA	0.014 ± 0.0037
UAGUGACACAUCUUCUCUGAGAGAUUAACA	0.618 ± 0.035
AUCACUUUCACCUUCUCUGAGAGAUUAACA	0.622 ± 0.027
UUCACUGUCACCUCUCUGAGAGAUUAACA	0.501 ± 0.037
UAGUGACAGUCCUGUCUCUGAGAGAUUAACA	0.0361 ± 0.0059
AUCACUGUCACCUUCUCUGAGAGUAUAACA	0.136 ± 0.024
UUCACUGUCAGCUUCUCUGAGACAUUAACA	0.0132 ± 0.0026
UAGUGACAGUGCUUCUCUGAGAGAUUAAACA	0.0056 ± 0.0028
UAGUCUGCACCUUCUCUGAGAGAUUAACA	0.608 ± 0.036
UAGUGACAGUCGUUCUCUGAGAGAUUAACA	0.00753 ± 0.0037
UUCACUGUCACCUUCUCUGAGGAUUAACA	0.114 ± 0.029
UAGACUGUCUCCUUCUCUGAGAGAUUAAGA	0.207 ± 0.039
UUCACUGUCUCCUUCUCAGAGAGAUUAACA	0.316 ± 0.023
UAGACUGUCACCUACUCUGACAGAUUAACA	0.0552 ± 0.011
UAGUGACACACCUUCUCUCAGUGAUUAACA	0.00544 ± 0.0035
UUCACUGUCAGCUUCUGUGAGAGAUUAACA	0.516 ± 0.032
UACACAGUCACCUUCACUGAGAGAUUAACA	0.423 ± 0.027
UUCACUGUCACCUUCUCUGAGAGUAUAACA	0.192 ± 0.033
UAGACUGUCUCCUUCUCUGAGACAUUAACA	0.0295 ± 0.0057
AUCACAGUCACCUUCUCUCAGAGAUUAACA	0.139 ± 0.015

Sequence	pre-steady-state target cleavage rate
AUCACUGUCACCUUCUGUGAGUGAUUAACA	0.0242 ± 0.0069
UAGUGACAGACCUUCUCUGAGAGAUAUAACA	0.0271 ± 0.0091
UAGUGACAGACCUUCUGUGUGAGAUUAACA	0.00826 ± 0.0031
UAGUGACACACGUUCUCUGAGAGUUUAACA	0.0466 ± 0.0067
UUCACUGUCACCUUCUCAGAGAGAUUAACA	0.384 ± 0.024
AUCACUGUCACCUUCUCUGAGAGAUUGACA	0.448 ± 0.072
UAGUCUGUCACCUUCUCUGAGAGGAUUAACA	0.36 ± 0.037
UAGACUGUCCACCUUCUCUGAGAGAUUAACA	0.627 ± 0.063
UAGUCUGUCACCUUCACAGAGAGAUUAACA	0.0478 ± 0.0067
UAGUCUGUCACCUUCUCUGAGAGAUAUACA	0.21 ± 0.026
UUCACUGUCACCUUCUCUCAGAGAUAAACA	0.0453 ± 0.0071
UAGACUGUCUGCUUCUCUGAGAGAUUAAGA	0.0881 ± 0.018
AUCUCUGUCACCUUCUCUGAGAGAUUUACA	0.379 ± 0.048
UACACUGUCACCUUCUCUGACACAUUAACA	0.0788 ± 0.0095
UAGUGUGUCACCUUCAGUGAGAGAUUUUGA	0.0067 ± 0.0051
UACACUGUCACCUUCUCUGAGAGUUUAAGA	0.403 ± 0.095
UAGUCUGUCACCUUCACUGAGAGUUUAACA	0.319 ± 0.057
UUCACUGUCACCAACUCUGAGAGAUUAAGA	0.125 ± 0.024
UAGUGAGUCACCUUCUGUGAGAGAUUUUGA	0.012 ± 0.0055
UAGUGUGUCACCUACUCUGUGAGAUUAACA	0.139 ± 0.013
UUGACUGUCACCUUCUCUGAGAGAUUAACA	0.777 ± 0.042
UAGUGAGAGUCCUUCUCUGAGAGAUUAAGA	0.0217 ± 0.0053
UAGUGACUCACAUUCUCUGAGAGAUUAACA	0.168 ± 0.0098
UACACUGUCACCUUCUGUGACAGAUUAACA	0.0217 ± 0.0069

Sequence	pre-steady-state target cleavage rate
UUCACUGUCACCUUCUCUGAGAGAUUAACA [g2:g29:cont:t1A]	0.717 ± 0.03
AACACUGUCACCUUCUCUGUGAGAUUAACA	0.291 ± 0.015
UAGUGUGUCACCUUCUCUGAGAGCUUAACA	0.245 ± 0.027
UACACUGUCAGCUUCUGUGAGAGAUUAACA	0.373 ± 0.032
UACUCUGUCUCCUUCUCUGAGAGAUUAACA	0.588 ± 0.044
UAGUGACAGUGGAAGUCUGAGAGUUAAACA	< 0.0001
AUCACUGUCACCUUCUGCUGAGAGAUUAACA	0.215 ± 0.061
UUCACUGUCACCUUCUUGAGAGAUUAACA	0.0655 ± 0.018
UAGUGACACAGCUUCUGUGAGAGAUUAACA	0.0673 ± 0.0097
UAGUGUGUCACCUUCUCUGACAGAAUAACA	0.0395 ± 0.0078
UAGUGAGUCACCUUGAGUGAGAGAUUAACA	0.00539 ± 0.0029
UAGACUGACACCUUCUCUGAGACAUUAACA	0.122 ± 0.012
UACACUGUCACGCUUCUCUGAGAGAUUAACA	0.463 ± 0.034
UAGUGACAGACCUUCUCUGACAGAUUUACA	0.00592 ± 0.0031
UAGUCUGUCACCUUCUCUGAGUGAUAAACA	0.0376 ± 0.0083
UAGUGACACACCUUCUCUGUGUGAUUAACA	0.00663 ± 0.006
UAGUGACUCACCUUCUCUGAGCGAUUAACA	0.118 ± 0.013
UAGACUUCACCUUCUCUGAGAGAUUAACA	0.576 ± 0.04
UAGUCUGUCACGUUCUCUGAGAGUUUAACA	0.107 ± 0.013
UAGUGACUCACCUUCUCUGAGAGAUUUACA	0.274 ± 0.035
UAGUGAGUCACCUUCUCUGAGACUUUUUGA	0.0215 ± 0.0082
UACACUGACACCUUCUCUGAGAGAUUAAGA	0.104 ± 0.026
UAGUGUGUCACCUUCUCUGAGAGUAUAUGA	0.0145 ± 0.0066
UUCACUGUCACCAUCACUGAGAGAUUAACA	0.462 ± 0.026
